Test results as given in PubChem BioAssay AID504466 (National Center for Advancing Translational Sciences (NCATS), 2011).
In all, about 330,000 compounds went through this assay and about 4,200 (1.3%) were called active. Inconclusive means that the source gave no clear call. Such entries were picked first, then a sample of the others. Calls come from the whole dose curve; as a rule, active = well fitted activation curve with a large enough effect; inconclusive = small, poorly fitted or top-dose-only effect; inactive = no such curve, though single readings can be large or run the other way. Potencies beside an inconclusive call are fits to weak or partial responses and may not hold up.

Assay: qHTS screen for small molecules that induce genotoxicity in human embryonic kidney (HEK293T) cells expressing luciferase-tagged ELG1; note: nearly all actives have a fitted effect of over 60% in size
Conditions: HEK293T ELG1-luciferase reporter, luminescence, 16 h; series mostly up to 46 µM
Procedure, shortened: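 Cells (2,000/well) expressing the ELG1-luciferase fusion are dosed by pin tool and kept 16 hr at 37 °C, 5% CO2. Signal comes from ONE-Glo luciferase reagent after 30 min at room temperature.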
Potency is the fitted concentration of half-maximal effect; tags give direction and shape of the fitted curve.

| Structure (SMILES) | Potency |
| --- | --- |
| CCOC(=O)c1ccc(NC(=O)Nc2ccon2)cc1 | active: 7.3 µM |
| CN(CC(=O)Nc1ccccc1Br)C(=O)c1n[nH]c2ccccc12 | inactive |
| Nc1ccccc1SCC(=O)N1CCc2ccccc21 | inconclusive: 8.91 µM [activator, partial curve] |
| OCCn1c(-c2ccc(F)cc2)csc1=Nc1ccccc1 | inconclusive: 32.6 µM [activator, partial curve, poor fit] |
| O=C(NC(c1ccccc1)c1cc(Cl)c2cccnc2c1O)c1cccnc1 (stereo not given) | inconclusive: 29.1 µM [activator, single point] |
| Cc1ccc(OCCCC(=O)Nc2nnc(C3CCCO3)s2)c(C)c1 (stereo not given) | inactive |
| COc1ccccc1C(=O)Nc1ccccc1SC(=O)c1ccccc1OC | active: 11.6 µM |
| OCc1cn(-c2ccccc2)nc1-c1cc2ccccc2o1 | inconclusive: 2.59 µM [activator, partial curve] |
| COc1ccccc1C(=O)NCCC(=O)N1CCN(c2cccc(C(F)(F)F)c2)CC1 | inactive |
| O=C(N/N=C/c1ccc(Cl)cc1)c1sccc1OCc1ccc(F)cc1 | inconclusive: 29.1 µM [activator, single point] |
| Cc1[nH][nH]c(=O)c1C(c1ccc(Br)cc1)c1c(C)[nH][nH]c1=O | inactive |
| O=[N+]([O-])c1ccccc1N/N=C/c1ccc2c(c1)OCO2 | active: 2.91 µM |
| O=C(COC(=O)c1cccc(-n2cnnn2)c1)c1ccc(Br)cc1 | inconclusive: 20.6 µM [activator, partial curve, poor fit] |
| N#CC(C(=O)CCN1C(=O)C2CC=CCC2C1=O)c1nc2ccccc2[nH]1 (stereo not given) | inactive |
| Cc1c(C(=O)O)cccc1-c1ccc(/C=C2\SC(=O)NC2=O)o1 | inactive |
| C(/CCc1ccccc1)=N\Nc1nc2ccccc2[nH]1 | inconclusive: 25.9 µM [activator, partial curve, poor fit] |
| O=c1c2ccccc2ncn1-c1ccc2c(c1)OCCO2 | inconclusive: 20.6 µM [activator, partial curve, poor fit] |
| O=C(Nc1ccc(Br)cc1)c1cnc[nH]1 | inconclusive: 20.6 µM [activator, partial curve, poor fit] |
| OC1CCN(C(=S)Nc2ccc(Nc3ccccc3)cc2)CC1 | inconclusive: 10.3 µM [activator, partial curve, poor fit] |
| O=C(Nc1cccc(O)c1)c1cc(-c2ccccc2Cl)on1 | inconclusive: 3.66 µM [activator, single point] |
| Cn1c(/C=C/c2ccc(Br)cc2)nc2ccccc2c1=O | inconclusive: 20.6 µM [activator, partial curve] |
| COc1cc2c(cc1NC(=O)c1ccc3c(c1)OCO3)oc1ccccc12 | active: 11.6 µM |
| C/C(=N/N=C(\C)c1ccccc1O)c1ccccc1O | inconclusive: 2.91 µM [activator, full curve, poor fit] |
| N/C(=N\OC(=O)c1ccccc1[N+](=O)[O-])c1cccnc1 | inconclusive: 16.4 µM [activator, single point] |
| CC(C)CC(=O)Nc1ccc(C(=O)Nc2cccc(O)c2)cc1 | inconclusive: 18.3 µM [activator, partial curve, poor fit] |

| Structure (SMILES) | Potency |
| --- | --- |
| COc1cc(/C=C/[N+](=O)[O-])ccc1OC(=O)/C=C/c1ccc(F)cc1 | inconclusive: 14.6 µM [activator, partial curve] |
| COc1ccc(C(=O)NCCSc2ccccc2C)cc1 | active: 4.61 µM |
| CC(=O)Nc1cccc(/C(C)=N/NC(=O)c2cccs2)c1 | inconclusive: 20.6 µM [activator, partial curve, poor fit] |
| COC(=O)c1ccc(OCC(=O)Nc2ccsc2C(=O)OC)cc1 | inconclusive: 20.6 µM [activator, partial curve, poor fit] |
| Nc1c(-c2ccccc2)c(CN2CCOCC2)nn1-c1ccccc1 | inactive |
| O=C(N/N=C/c1ccc2c(c1)OCO2)C(=O)N1CCCC1 | inconclusive: 18.3 µM [activator, partial curve] |
| COc1ccccc1CCNC(=O)c1ccc(NC(=O)CC2SC(N3CCCC3)=NC2=O)cc1 (stereo not given) | inactive |
| COc1cccc(/C=C/c2nc3c(cnn3-c3ccccc3)c(=O)[nH]2)c1 | inconclusive: 16.4 µM [activator, partial curve, poor fit] |
| COc1cc(/C=C2\Oc3cc(O)ccc3C2=O)ccc1O | active: 23.1 µM |
| Cc1cccc(NC(=O)Nc2ccccc2)n1 | inconclusive: 20.6 µM [activator, partial curve, poor fit] |
| CCc1c(C)sc(NC(=O)c2ccoc2C)c1C(N)=O | inactive |
| Cc1cccc(N2CCN(C(=S)Nc3ccc4nc(N5CCN(C)CC5)cc(C)c4c3)CC2C)c1 (stereo not given) | inconclusive: 25.9 µM [activator, partial curve, poor fit] |
| CCOC(=O)CNC(=O)CSc1nnc(NC(=O)c2ccccc2Cl)s1 | inconclusive: 23.1 µM [activator, single point] |
| CC(=O)NN1C(=O)/C(=C/c2ccc(C(C)C)cc2)SC1=S | inactive |
| Cc1cc(OCCCC(=O)N2CCCCC2)cc(C)c1Cl | inconclusive: 29.1 µM [activator, single point] |
| CCCCCCCNC(=O)C1(CC2CC(c3ccc(Cl)cc3)=NO2)CCN(C(=O)CCCCCBr)CC1 (stereo not given) | inactive |
| Cc1ccc(/C=C/C(=O)NCCc2ccccc2)o1 | inconclusive: 20.6 µM [activator, single point] |
| COc1ccc(-n2nc([N+](=O)[O-])c(=NCc3cccnc3)n2O)cc1 | inconclusive: 6.51 µM [activator, partial curve] |
| NNC(=O)c1ccc(Cn2cccn2)o1 | inactive |
| O=C(NCc1ccccc1)c1ccco1 | inactive |
| COc1ccc(NC(=O)Nc2nc3ccccc3s2)cc1 | inconclusive: 2.06 µM [activator, full curve, poor fit] |
| Cc1ccc(C=Nc2ccccc2C(N)=O)s1 | inconclusive: 16.4 µM [activator, partial curve, poor fit] |
| CC(=O)Nc1cccc(C(=O)/C=C/c2ccc(C)cc2)c1 | inactive |
| Cc1ccc(-c2nc(CS(=O)(=O)CC(=O)N3CCc4ccccc4C3)c(C)o2)cc1 | inconclusive: 20.6 µM [activator, single point] |
| Cc1ccc(NC(=O)C2CCCN(S(=O)(=O)c3cccc4nonc34)C2)cc1 (stereo not given) | inactive |

| Structure (SMILES) | Potency |
| --- | --- |
| CCOC(=O)Cc1csc(NC(=O)c2ccc3ccccc3n2)n1 | inactive |
| CCCn1c(=S)[nH]c2sc3c(c2c1=O)CCCC3 | inactive |
| O=C(NC(=S)Nc1ccc2c(c1)OCCO2)c1ccc(F)cc1Cl | inconclusive: 18.4 µM [activator, partial curve, poor fit] |
| O=C(NC(=S)Nc1ccc(Cl)cc1Cl)C1CC1 | inconclusive: 5.8 µM [activator, partial curve] |
| COc1ccc(OC)c(Nc2ncnc3c2cnn3-c2ccccc2)c1 | inconclusive: 29.1 µM [activator, partial curve, poor fit] |
| O=C(CSc1nnc(-c2ccccc2F)o1)N1CCNC1=O | inconclusive: 18.3 µM [activator, partial curve] |
| O=C(O)C[C@@H](O)C(=O)O | inactive |
| CCCOc1ccccc1-c1nc2c([nH]1)c(=O)[nH]c(=O)n2C | inconclusive: 25.9 µM [activator, partial curve, poor fit] |
| Cc1ccc(CNC(=O)COc2ccc(S(=O)(=O)N3CCCC3)cc2)cc1 | inactive |
| COc1ccc(-c2coc3cc(O)ccc3c2=O)cc1O | active: 13 µM |
| COc1ccc(OCc2nnc(SC3CCOC3=O)n2-c2ccccc2)cc1 (stereo not given) | inconclusive: 23.1 µM [activator, partial curve, poor fit] |
| Cc1ccc(OCC(O)CN2CCOCC2)cc1C (stereo not given) | inactive |
| COc1ccc(NC(=O)Cn2nnc(C(=O)NCCc3ccccc3)c2N)cc1 | inconclusive: 23.1 µM [activator, partial curve, poor fit] |
| COc1cc(/C=C(/C#N)c2nc3ccccc3c(=O)[nH]2)ccc1O | inactive |
| O=C(N/N=C/c1c(O)ccc2ccccc12)c1[nH]ncc1Br | inconclusive: 18.4 µM [activator, single point] |
| O=C(CSc1nc2ccccc2o1)Nc1nc(-c2ccccc2)cs1 | inconclusive: 9.2 µM [activator, partial curve] |
| COc1ccc(CCNC(=O)c2cc3c(=O)n4cccc(C)c4nc3n(Cc3ccncc3)c2=N)cc1 | inactive |
| Cc1ccc2nc(C)c(C(=O)N/N=C/c3ccco3)cc2c1 | inactive |
| COc1ccc(NC2=Nc3cccc4cccc2c34)cc1OC | inactive |
| Cc1cccc(NC(=S)NC(=O)c2ccc(Br)o2)c1 | inconclusive: 23.1 µM [activator, partial curve, poor fit] |
| CCOC(=O)Nc1sc2c(c1C#N)CCC(C)C2 (stereo not given) | inconclusive: 18.4 µM [activator, partial curve] |
| COc1ccc(/C=N/Nc2nncc3ccccc23)c(OC)c1 | inconclusive: 20.6 µM [activator, single point] |
| COc1cccc(NC(=O)N2CCN(c3cccc(C)c3C)CC2)c1 | inconclusive: 18.4 µM [activator, single point] |
| O=C(/C=C/Nc1ccccc1)c1ccccc1 | inconclusive: 0.447 µM [activator, full curve, poor fit] |
| CCOC(=O)COc1ccc2c3c(c(=O)oc2c1C)CCC3 | inconclusive: 29.1 µM [activator, partial curve, poor fit] |
